Measurements from PubChem BioAssay AID624296 (National Center for Advancing Translational Sciences (NCATS), 2012).
Screen size: about 350,000 compounds; about 9,900 (2.8%) were called active. The shares of active, inactive and inconclusive entries below differ from those in the screen. Calls follow the shape of the dose curve; as a rule, active = well fitted activation curve with a large enough effect; inconclusive = small, poorly fitted or top-dose-only effect; inactive = no such curve, though single readings can be large or run the other way. No potency is given beside an inconclusive call; the fits are too rough.

Assay: A quantitative high throughput screen for small molecules that induce DNA re-replication in MCF 10a normal breast cells. Also: nearly all actives have a fitted effect of over 50% in size. As to activity, positive = re-replication: % of control where 0% means no effect.
Conditions: MCF 10A DNA re-replication, Hoechst nuclear intensity, 48 h; activity, positive = re-replication: at 46.1 µM (top of the series)
Potency is read from the fitted curve at half-maximal effect; tags tell the direction and shape of the fitted curve.

Row | SMILES | activity, positive = re-replication | Potency
1 | O=C(Nc1cccc(S(=O)(=O)NC2=NCCC2)c1)c1cc(-c2ccco2)nc2ccccc12 | inactive: 0.082% | –
2 | COc1ccccc1-c1c(-c2ccc(OCC(=O)NN)cc2O)n[nH]c1C(F)(F)F | – | inconclusive [activator, single point]
3 | COc1ccc(Nc2ncnc3sc(-c4ccccc4)cc23)cc1OC | – | inconclusive [activator, single point]
4 | S=C(NCc1cccs1)Nc1cc(Cl)cc(Cl)c1 | – | active: 23.1 µM
5 | C/C(=N\NC(=O)COc1ccccc1-c1ccccc1)c1ccc(O)cc1O | – | inconclusive [activator, partial curve, poor fit]
6 | O=C1N/C(=N/N=C/c2ccc(F)cc2)SC1c1ccccc1 (configuration not stated) | – | inconclusive [activator, partial curve, poor fit]
7 | COc1ccc(-c2nsc3c(N4CCCCC4)ncnc23)cc1 | inactive: 2.98% | –
8 | CCCCCN(C(=O)CCC(=O)OCC(=O)Nc1ccc(C)cc1F)c1c(N)n(CCCC)c(=O)[nH]c1=O | – | inconclusive [activator, single point]
9 | N#Cc1ccc(CSc2nnc(-c3ccccc3)n2Cc2ccco2)cc1 | – | inconclusive [activator, full curve, poor fit]
10 | CCOc1ccc(N2CC(C(=O)Nc3cccc(S(=O)(=O)N4CCCC4)c3)CC2=O)cc1 (configuration not stated) | – | inconclusive [activator, single point]
11 | Cc1cnc(NC(=O)c2c(-c3ccccc3)noc2C)s1 | inactive: -9.81% | –
12 | COc1ccccc1-c1cc(C(=O)NCc2ccccc2)no1 | inactive: 13.7% | –
13 | COc1ccc(F)cc1S(=O)(=O)N1CCC2(CC1)OCCN2S(=O)(=O)c1ccccc1 | – | inconclusive [activator, single point]
14 | CC(=O)N/N=C/c1ccccc1OCCOc1cccc(C)c1 | – | inconclusive [activator, single point]
15 | O=C(O)Cc1sc(N/N=C\c2ccncc2)nc1-c1ccccc1 | – | inconclusive [activator, single point]
16 | O=C(CC1S/C(=N/N=C/c2cccnc2)NC1=O)Nc1ccccc1 (configuration not stated) | inactive: 17.2% | –
17 | CN(C)c1nc(NCc2ccccc2)nc(SCC(=O)Nc2ccccc2)n1 | – | inconclusive [activator, single point]
18 | N#C/C(=C(/O)COC(=O)CCC1CCCCC1)c1nc2ccccc2[nH]1 | – | inconclusive [activator, single point]
19 | CC(=O)n1cc([C@H]2C=C(C(=O)NCc3ccccc3)O[C@@H](OCc3ccc(CO)cc3)C2)c2ccccc21 | – | active: 18.4 µM
20 | Cc1ccc(NC(=O)[C@H](Cc2c[nH]c3ccccc23)NC(=O)[C@@H]2Cc3ccccc3CN2)c(C)c1 | – | inconclusive [activator, single point]
21 | Cc1cc(O)c(C(C)C)cc1NC(=O)Nc1ccc([N+](=O)[O-])cc1 | inactive: -13.8% | –
22 | COC(=O)c1ccccc1OCC(=O)NC1CCCCC1 | inactive: 22.3% | –
23 | O=C(Nc1ccccc1N1CCCC1)C1CCN(C(=O)c2ccc(Cl)cc2)CC1 | inactive: -0.0158% | –

Row | SMILES | activity, positive = re-replication | Potency
24 | ClC(Cl)(c1nnnn1-c1ccccc1)c1nnnn1-c1ccccc1 | – | inconclusive [activator, single point]
25 | CC1Cc2ccccc2N1CC(=O)Nc1ccc(Cl)c(S(=O)(=O)N(C)C)c1 (configuration not stated) | inactive: 1.36% | –
26 | Cc1cc(=O)oc2cc(NC(=O)C(C)Oc3cccc(Cl)c3)ccc12 (configuration not stated) | – | inconclusive [activator, single point]
27 | O=C1c2ccccc2C(=O)c2c1ncn2-c1ccccc1 | – | inconclusive [activator, single point]
28 | Fc1ccc2cnc(-c3ccccc3)c(-c3ccc(C(F)(F)F)cc3)c2c1 | – | inconclusive [activator, single point]
29 | Cc1ccc(-c2noc(CCC(=O)NC3CCCc4ccccc43)n2)cc1 (configuration not stated) | – | inconclusive [activator, single point]
30 | Cc1ccc(CN2CCN(Cc3ccc4cccc(F)c4n3)CC2CCO)cc1 (configuration not stated) | – | inconclusive [activator, single point]
31 | COc1ccc(OC)c(-c2csc(NC(=O)Cc3ccc(F)cc3)n2)c1 | – | inconclusive [activator, single point]
32 | CC(C)CC(CC(C)C)=NNC(=O)c1ccc2c(c1)OCO2 | – | inconclusive [activator, single point]
33 | Cc1cc(C)c(C)c(S(=O)(=O)N2CCC(C(=O)Nc3ccc(S(=O)(=O)N4CCOCC4)cc3)CC2)c1C | – | inconclusive [activator, single point]
34 | Cc1ccc(CC(=O)NCc2ccc(F)cc2)cc1 | – | inconclusive [activator, single point]
35 | O=C(CCc1ccccc1)NCCSCc1c(F)cccc1Cl | inactive: 3.19% | –
36 | O=c1c2cnn(-c3ccccc3)c2nc(-c2cccs2)n1-c1ccc(Cl)cc1 | – | inconclusive [activator, full curve, poor fit]
37 | Cc1ccc(NCc2cccc(B(O)O)c2)cc1 | inactive: -6.34% | –
38 | CCC1(C)Cc2c(sc3nc(SC)nc(N)c23)CO1 (configuration not stated) | inactive: -0.174% | –
39 | Cc1cccc(N(C)C(=O)c2cc(S(=O)(=O)N3CCc4ccccc43)cn2C)c1 | – | inconclusive [activator, partial curve, poor fit]
40 | Cn1nnnc1Sc1ncnc2scc(-c3cccc(C(F)(F)F)c3)c12 | – | active: 3.26 µM
41 | O=C(N/N=C/c1ccc(Br)o1)c1cc([N+](=O)[O-])cc([N+](=O)[O-])c1 | inactive: 1.4% | –
42 | CCOc1cccc2sc(NC(=O)CCS(=O)(=O)c3ccccc3)nc12 | – | active: 20.6 µM
43 | CCN(CC)/C(N)=N/c1nc(C)cc(C)n1 | inactive: -6.45% | –
44 | O=C(NCCn1c(-c2ccncc2)nc2ccccc21)[C@H]1CCCN1c1nc(CN2CCCCC2)cs1 | – | inconclusive [activator, full curve, poor fit]
45 | Cc1ccc(/C=C2/SC(=S)N(CC(=O)Nc3ncc(Cc4ccc(C)cc4)s3)C2=O)cc1 | inactive: -10.8% | –
46 | Cc1c(C(=O)Nc2ccccc2)c2ccc(C(F)(F)F)cc2n1O | – | inconclusive [activator, single point]

Row | SMILES | activity, positive = re-replication | Potency
47 | Cc1ccc(N2C(=O)N3[C@H]4c5ccccc5OC[C@@H]4[C@@H](c4ccccc4)[C@@]3(C)C2=O)cc1 | – | inconclusive [activator, partial curve, poor fit]
48 | C=CCN([C@@H](CC(C)C)C(=O)OC)S(=O)(=O)N(CC=C)[C@@H](CC(C)C)C(=O)OC | inactive: -0.287% | –
49 | COc1ccc(N2CCN(C(=O)c3c(C)nn(-c4ccccc4)c3C)CC2)cc1 | – | inconclusive [activator, partial curve, poor fit]
50 | O=C(C1CCCN(S(=O)(=O)c2cnc[nH]2)C1)N1CCN(c2ccc(Cl)cc2)CC1 (configuration not stated) | – | inconclusive [activator, partial curve, poor fit]
51 | O=C1CN(C(=O)CSc2nc3ccccc3c(=O)n2CC2CCCO2)c2ccccc2N1 (configuration not stated) | – | inconclusive [activator, partial curve, poor fit]
52 | CC(=O)c1c(C)[nH]c(C(=O)Nc2cccc(S(=O)(=O)N(C)c3ccccc3)c2)c1C | – | active: 23.1 µM
53 | c1ccc(COCCN2CCN(CCOCc3ccccc3)CC2)cc1 | inactive: -0.995% | –
54 | O=C(NCc1ccco1)Nc1ccccc1Cl | – | inconclusive [activator, single point]
55 | CCc1noc(C)c1C(=O)Nc1cc(Cl)ccc1N1CCCC1 | – | inconclusive [activator, partial curve, poor fit]
56 | COc1ccc(S(=O)(=O)N2CC(=O)Nc3ccccc32)cc1Cl | – | inconclusive [activator, single point]
57 | Cc1ccc(NC(=S)Nc2ccc(S(=O)(=O)N3CCOCC3)cc2)cc1S(=O)(=O)N1CCOCC1 | – | inconclusive [activator, full curve]
58 | CN1CCN(c2ccc(C(=O)c3cn(-c4ccc(F)c(Cl)c4)nn3)cc2)CC1 | – | inconclusive [activator, partial curve, poor fit]
59 | CN(Cc1ccc(C(C)(C)C)cc1)C(=O)C1CCN(C(=O)Nc2ccccc2)CC1 | inactive: 31.5% | –
60 | CN(C(=O)c1ccc(NC(=O)Cc2cccc(NC(=O)C3CCN(C(=O)c4ccccc4)CC3)c2)cc1)C1CC1 | inactive: -0.344% | –
61 | Cc1ccc(NC(=O)CN2C(=O)NC3(CCCc4ccccc43)C2=O)c(Cl)c1 (configuration not stated) | – | inconclusive [activator, partial curve, poor fit]
62 | CN(CCNC(=O)c1c[nH]c2c1ccc1ccccc12)CCNC(=O)c1c[nH]c2c1ccc1ccccc12 | – | inconclusive [activator, single point]
63 | CC(Nc1nc(C(F)(F)F)nc2ccccc12)c1cccs1 (configuration not stated) | – | inconclusive [activator, single point]
64 | CCOc1cccc(C(=O)Nc2cccc(-c3nnc(-c4ccccc4)o3)c2)c1 | – | inconclusive [activator, partial curve, poor fit]
65 | C(=N/Nc1nc(-c2ccccc2)cc(-c2ccccc2)n1)/c1cccnc1 | – | inconclusive [activator, single point]
66 | CC(C)Oc1ccc(C(=O)Nc2ccccc2N2CCOCC2)cc1 | – | inconclusive [activator, partial curve, poor fit]
67 | CC(=O)c1ccccc1NC(=O)COc1ccc(N(C)S(=O)(=O)c2ccc(C)c(C)c2)cc1 | – | active: 20.6 µM
